Measurements published in PubChem BioAssay AID1508642 (National Center for Advancing Translational Sciences (NCATS), 2021).
Hit rate of the full screen: of about 43,000 compounds, about 200 (0.47%) were called active. About 12% were inconclusive and are not listed. Calls follow the shape of the dose curve; as a rule, active = well fitted cell-killing curve with a large enough effect; inconclusive = small, poorly fitted or top-dose-only effect, or effect the other way; inactive = flat fitted curve, though single readings scatter. The list shows a part of the results.

Experiment: Cell viability qHTS assay in S16 Pmp22-F2sN cells; also: nearly all actives have a fitted effect of over 65% in size
Conditions: S16 Pmp22-F2sN Schwann cells viability, CellTiter-Glo, 24 h; series mostly up to 57.5 µM; activity change, negative = cytotoxicity: at the top concentration
Method in brief: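 Used to flag compounds lowering reporter output through toxicity, this quantitative HTS measures ATP-based CellTiter-Glo luminescence in S16 Pmp22-F2sN Schwann cells after 24 h compound exposure at 37C.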
% is scaled to controls: 0 for no effect and ±100 for the full control effect.

Structure (SMILES)	activity change, negative = cytotoxicity
Cc1nn(C(C)C(=O)NC2CCC(C)CC2)c(=O)c2c1sc1ccccc12 (stereo not given)	inactive: 6.93%
CCc1ccc(OCc2nc(-c3ccc(-n4cccc4)cc3)no2)cc1	inactive: 1.83%
CCc1nc(-c2cc(S(=O)(=O)N3CCN(c4ccc(OC)cc4)CC3)ccc2OC)no1	inactive: 7.43%
CCOc1ccc(-c2cn3c(n2)sc2cc(C(=O)NCCc4ccc(OC)cc4OC)ccc23)cc1	inactive: 4.23%
O=S(=O)(NCCc1csc2nc(-c3ccccc3)nn12)c1cccs1	inactive: 0.395%
CCOc1ccc(C2C(C(=O)Nc3ccccc3)=C(C)Nc3nc(SCc4cccc(OC)c4)nn32)cc1 (stereo not given)	inactive: -0.316%
Cc1ccc(/C=C/c2onc(C)c2S(=O)(=O)N2CCC(C(=O)N3CCN(c4cccc(C)c4)C(C)C3)CC2)cc1 (stereo not given)	inactive: 20.5%
Cc1ccc(OCc2nc(-c3ccc(C(=O)NCCc4ccc(Cl)cc4)cc3)oc2C)cc1	inactive: 3.03%
Cc1ccc(NC(=O)CN2C(=O)CCc3ccccc32)cc1C	inactive: 4.3%
COc1ccc(N(CC(=O)NC(C)c2ccccc2)S(=O)(=O)c2c(C)nn(C)c2C)cc1 (stereo not given)	inactive: 8.55%
COc1ccc(N2CCN(Cc3nc4c(c(=O)[nH]c(=O)n4C)n3Cc3ccc(C)cc3)CC2)cc1	inactive: -1.26%
CCOC(=O)c1c(C)[nH]c(C)c1S(=O)(=O)N1CCCC(C(=O)N2CCN(c3ccccc3F)CC2)C1 (stereo not given)	inactive: -3.91%
CCc1nn(CC(=O)N2CCN(c3cccc(OC)c3)CC2)c(=O)c2cc3occc3n12	inactive: 1.63%
COc1ccc(NC(=O)c2nn(C)c3c2CS(=O)(=O)c2ccccc2-3)cc1Cl	inactive: 3.79%
Cc1ccccc1CN1C(=O)c2ccccc2Sc2ccc(C(=O)NC3CCCCC3)cc21	inactive: -2.66%
CC(C)Nc1ccc(-c2nc(-c3ccncc3)no2)cc1[N+](=O)[O-]	inactive: -9.98%
Cc1ccc(C(=O)n2nc(C)c(S(=O)(=O)N3CCCCCC3)c2C)cc1C	inactive: -15.8%
CN(Cc1ccccc1)c1nnc(NC(=O)Nc2cccc(Br)c2)s1	inactive: -12.1%
Cc1ccc(-n2nc(C(=O)Nc3ccc(F)cc3Cl)c(=O)n(C)c2=O)cc1	inactive: -4.3%
CCOC(=O)c1c(S(=O)(=O)N2CCC(C(=O)NCc3cccc(C)c3)CC2)c(C)n(C)c1C	inactive: -0.929%

Structure (SMILES)	activity change, negative = cytotoxicity
CCOc1cccc2sc(N3CCN(C(=O)c4ccc5c(c4)CCCC5)CC3)nc12	inactive: -8.77%
COc1ccccc1NC(=O)CSc1nc(O)c(C/C=C/c2ccccc2)c(=O)[nH]1	inactive: -3.59%
CCc1nnc(NC(=O)CSc2nccn2Cc2ccc(C)cc2)s1	inactive: 3.27%
COc1ccc(CNC(=O)c2nc(SCc3ccc(C)cc3)ncc2Cl)cc1	inactive: -2.16%
COc1ccc(Cn2c(=O)n(-c3ccc(F)c(Cl)c3)c(=O)c3c2c2cc(OC)ccc2n3C)cc1	inactive: -7.55%
CCN(CC)C(=O)c1ccc2c(c1)N(Cc1c(F)cccc1Cl)C(=O)c1ccccc1S2	inactive: 12%
CC(C)C(NS(=O)(=O)c1ccc2c(c1)oc(=O)n2C)C(=O)N1CCN(c2cccc(Cl)c2)CC1 (stereo not given)	inactive: 6.2%
O=C(CSc1nc(=O)[nH]c2c1CCCC2)Nc1ccc(Cl)c(Cl)c1	inactive: 0.886%
COC(=O)Cn1c(=NC(=O)c2ccc3c(c2)OCCO3)sc2ccccc21	inactive: 8.04%
Cc1ccn2c(Nc3c(C)cccc3C)c(-c3ccsc3)nc2c1	inactive: -18.3%
COc1ccc(N2CC(NC(=O)c3cccs3)CC2=O)cc1 (stereo not given)	inactive: -1.38%
COc1ccc(Cl)cc1NC(=O)NCCn1c(=O)oc2ccc(C)cc21	inactive: -10.4%
CCc1ccc(-n2c(=O)c3ccccc3n(CC(=O)NCCc3ccc(OC)c(OC)c3)c2=O)cc1	inactive: 17.2%
Cc1ccc(N(CC(=O)N2CCN(c3cccc(Cl)c3)CC2)S(=O)(=O)c2c(C)noc2C)cc1	inactive: -19.2%
COc1ccc(C)cc1NC(=O)N1CCC(CN2CCOCC2)CC1	inactive: 14.2%
CCn1cc2nc(SCc3cccc(C(F)(F)F)c3)n(Cc3ccc(Cl)cc3)c(=O)c2n1	inactive: 25.4%
COc1ccc(OC)c(NC(=O)CCCc2nnc3n(C(C)C)c(=O)c4sccc4n23)c1	inactive: 19.4%
Cc1ccc(Cl)cc1-n1nnc(-c2nsc(NC(=O)c3ccccc3Cl)n2)c1C	inactive: 11.6%
Cc1ccc2oc(C(=O)Nc3ccc(S(=O)(=O)N4CCCC(C)C4)cc3)cc(=O)c2c1 (stereo not given)	inactive: -13.9%
Cc1ccc(C)c(N2CCN(C(=O)c3cnn(C(C)(C)C)c3C3CCN(C(=O)OC(C)(C)C)CC3)CC2)c1	inactive: -29.5%

Structure (SMILES)	activity change, negative = cytotoxicity
COc1ccc(-c2cn3nc(N4CCC(C(=O)Nc5ccccc5OC)CC4)sc3n2)cc1	inactive: 1.27%
CCOc1ccc(NC(=O)CC2C(=O)N(c3ccccc3)C(=O)N2CCc2cccs2)cc1 (stereo not given)	inactive: -0.692%
Cc1ccc2cc3cc(C(=O)N4CCN(c5ccc(Cl)cc5)CC4)oc3nc2c1	inactive: 0.371%
Cc1ccccc1NC(=O)c1c(NC(=O)c2ccccc2)sc2c1CCC2	inactive: 6.81%
CCC(=O)Nc1ccc(CC)cc1-c1nc2ccccc2n(CC(=O)Nc2cccc(OC)c2)c1=O	inactive: 1.27%
Cc1ccc(CCNC(=O)c2sc3ncccc3c2-n2c(C)ccc2C)cc1	inactive: -16.2%
CC1CCCCN1c1c(S(=O)(=O)c2ccc(Cl)cc2)cnc2ccccc12 (stereo not given)	inactive: -2.79%
CCOC(=O)c1cc2c(=O)n3ccccc3nc2n(CC(C)C)c1=NC(=O)COc1ccc(Cl)cc1	inactive: -5.85%
COc1ccc(C(=O)Nc2ccc3nc4c(c(Nc5ccc(OC)c(OC)c5)c3c2)CCCC4)c(OC)c1	inactive: 13.7%
COc1ccc(-c2nc(CS(=O)CC(=O)NCCc3ccccc3)c(C)o2)cc1OC (stereo not given)	inactive: -20.3%
Cc1cc(C)cc(-n2ccnc(NCCc3ccccc3)c2=O)c1	inactive: 13.4%
O=C(CCCc1nc(-c2ccco2)no1)Nc1ccccc1[N+](=O)[O-]	inactive: -1.82%
COc1cccc(-n2c(=O)c3c4c(sc3n(Cc3ccc(F)cc3Cl)c2=O)CCCC4)c1	inactive: -3.54%
COc1ccc(-c2[nH]ncc2C(=O)NCc2cccc(F)c2)cc1	inactive: -2.46%
CCC1CCCCN1S(=O)(=O)c1ccc(N2CCCCS2(=O)=O)cc1 (stereo not given)	inactive: 1.19%
CCOC(=O)c1ccc(NC(=O)c2c(C)oc3nc(C)nc(N4CCCC4)c23)cc1	inactive: 2.43%
CC(=O)Nc1c(C(=O)Nc2cccc(C)c2)nnn1-c1ccc(C)cc1	inactive: -12.7%
Cc1ccc(Cl)cc1N1CCN(C(=O)CCSCc2ccccc2F)CC1	inactive: -5.78%
CCc1ccc(-c2cc(C)no2)cc1S(=O)(=O)N1CCN(c2cccc(Cl)c2)CC1	inactive: -9.1%
COc1ccc(NC(=O)c2oc3ccc(S(=O)(=O)N(C)C4CCCCC4)cc3c2C)cc1Cl	inactive: 2.04%
